PubChem BioAssay AID445 (National Center for Advancing Translational Sciences (NCATS), 2006)
Hit rate of the full screen: of about 110,000 compounds, about 40 (0.04%) were called active. The inconclusive results got no clear call from the source; some entries with a clear call stand among them for comparison. The call rests on the fitted dose curve; in most records, active means well fitted curve in the direction sought with a large enough effect in the signal ratio (not every such curve was filed as active); inconclusive means small, poorly fitted or top-dose-only effect, or a change in a side signal; inactive means flat fitted curve, though single readings scatter; the % refers to the signal ratio. A potency beside an inconclusive call is a rough fit, not a confirmed value.

Experiment: IkB Signaling;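 on IkBa stabilization activation: 0% = basal untreated cells and 100% = reference inhibitor full response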
Conditions: ABC-DLBCL IkBa-CBG/CBR dual luciferase ratio (green luciferase fused to IkBa over red control in OCI-Ly3 lymphoma cells), 4 h; IkBa stabilization activation: at 57.1 µM (top of the series), scaled: untreated 0%, proteasome inhibitor 100% unless noted
How it was run: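 In this assay, an IκBα–CBG68 fusion accumulates when IKK-driven degradation is blocked; native CBR normalizes for cell number. OCI-Ly3 cells were treated 4 h with compound and doxycycline, then green and red light read after Chroma-Glo addition.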
Potency means the concentration at half of the fitted maximal effect.

Row | Structure (SMILES) | IkBa stabilization activation | Potency
1 | C=CCN(CC=C)c1nc2ccccc2nc1C(C#N)C(=O)OCCOC (stereo not given) | inactive: -1.45% | 
2 | Cc1nn(C)c2c1c(C(F)(F)F)cc(=O)n2C(C)C(=O)NCCc1ccccc1 (stereo not given) | inconclusive: 2.06% [signal inhibitor] | 
3 | O=C(Nc1nc2n(n1)C(c1ccc(Cl)cc1)C=C(c1ccccc1)N2)c1ccco1 (stereo not given) | inconclusive: 0.94% [signal inhibitor] | 
4 | CCC(COC(=O)Nc1cccc(C)c1C)NC(=O)OCC(C)C (stereo not given) | inconclusive: 2.48% [signal inhibitor] | 
5 | COc1ccc(CCNC(c2ccc(F)cc2)c2nnc(-c3ccccc3Cl)o2)cc1OC (stereo not given) | inconclusive: -1.47% [signal inhibitor] | 
6 | Cc1cc(C)c(O)c(-c2cc(C(=O)Nc3ccc(S(=O)(=O)N4CCOCC4)cc3)[nH]n2)c1 | inconclusive: -6.69% [signal inhibitor] | 
7 | COC(=O)c1ccc(CSc2nc(-c3ccccc3)cs2)o1 | inactive: 2.04% | 
8 | CC(C)c1nc2cc3ccccc3cc2[nH]1 | inconclusive: 3.49% [signal inhibitor] | 
9 | CCCCCn1c(SCc2ccncc2)nc2cc(C(=O)NCc3ccco3)ccc2c1=O | inconclusive: -0.534% [signal inhibitor] | 
10 | Cc1cc(C)c2c(=O)c3c(oc2c1)C(=O)N(Cc1ccc(F)cc1)C3c1cccc(O)c1 (stereo not given) | inconclusive: 0.916% [signal inhibitor] | 
11 | Cc1ccc(CNC(=O)CN(c2ccc(C(C)C)cc2)S(=O)(=O)c2c(C)n[nH]c2C)cc1 | inconclusive: 1.6% [signal inhibitor] | 
12 | Cc1ccc2[nH]c3c(c2c1)CCC3=O | inactive: 0.0357% | 
13 | Nc1[nH]c(=O)nc2c1ncn2[C@H]1O[C@@H](CO)[C@@H](O)[C@@H]1O | inactive: 1.46% [at 11.4 µM, scaled: untreated 0%, proteasome inhibitor 100%] | 
14 | Cc1cc(OCCCCCNCCO)cc(C)c1Cl | inconclusive: -5.82% [signal inhibitor] | 
15 | O=C(COc1ccc(Cl)cc1)Nc1ccccc1C(=O)OCc1cc(=O)n2ccsc2n1 | inconclusive: 0.116% [signal inhibitor] | 
16 | CCCC(=O)NCC(c1ccc2c(c1)OCO2)N1CCOCC1 (stereo not given) | inconclusive: -1.77% [signal inhibitor] | 
17 | COc1ncc2nc(-c3ccc(F)cc3)c(=O)n(CCc3ccccc3)c2n1 | inactive: 0.106% [at 11.4 µM, scaled: untreated 0%, proteasome inhibitor 100%] | 
18 | O=C(Nc1ccc(SC(F)F)cc1)c1cc(-c2cccs2)on1 | inconclusive: 5.81% [signal inhibitor] | 
19 | CC1CCN(C(=O)CN2CCSc3ccccc32)CC1 | inactive: -0.308% | 
20 | COc1ccc(-c2cc3nc(-c4ccccc4)cc(N4CCC5(CC4)OCCO5)n3n2)cc1 | inconclusive: 4.53% [signal inhibitor] | 
21 | COc1ccc(OC)c(NC(=O)CSc2nc(-c3ccccc3C)nc3cc(=O)[nH]n23)c1 | inconclusive: 0.612% [signal inhibitor] | 
22 | CC(=O)c1cccc(NC(=O)CCCN2C(=O)COc3ccc(C)cc32)c1 | inconclusive: 3.25% [signal inhibitor] | 
23 | O=C(NCCc1ccccc1)c1ccc2c(c1)CCN2S(=O)(=O)c1ccc(Br)cc1 | inconclusive: 1.79% [signal inhibitor] | 
24 | COc1ccc(N2CC(c3nc(-c4cc(OC)c(OC)c(OC)c4)no3)CC2=O)cc1Cl (stereo not given) | inconclusive: 10.4% [signal inhibitor] | 

Row | Structure (SMILES) | IkBa stabilization activation | Potency
25 | CCC(=O)N1CCCc2cc(S(=O)(=O)N3CCC(C(=O)Nc4ccc(F)c(F)c4)CC3)ccc21 | inactive: 2.97% | 
26 | CNC(=O)c1cc2cc(OC)ccc2oc1=N | inactive: -1.6% | 
27 | COC(=O)c1cnn2c(C)c(Cc3cccc(F)c3)c(C)nc12 | inactive: 4.47% | 
28 | CC1(N)CCC(C(C)(C)N)CC1 (stereo not given) | inactive: 5.03% | 
29 | COC(=O)c1ccccc1NC(=O)CSc1nc(-c2ccccc2)cc(C(F)(F)F)n1 | inconclusive: 2.67% [signal inhibitor] | 
30 | CCOC(=O)c1c(C)[nH]c(C)c1S(=O)(=O)N1CCC(C(=O)Nc2ccc(F)cc2F)CC1 | inactive: 1.12% | 
31 | Cc1cc(Cl)ccc1NC(=O)CN1C(=O)CSc2ccc(S(=O)(=O)N(C)C)cc21 | inactive: 1.18% | 
32 | COc1ccccc1CNC(=O)CCc1c(C)nc2cc(-c3ccccc3OC)nn2c1C |  | inconclusive: 20 µM [signal inhibitor]
33 | Cc1ccc(NC(=O)CN2CCCN(Cc3ccccc3Cl)S2(=O)=O)c(C)c1 | inconclusive: 0.596% [signal inhibitor] | 
34 | c1ccc(CCc2nc(-c3ccccn3)no2)cc1 |  | inconclusive: 15.8 µM [signal inhibitor, partial curve]
35 | COc1ccccc1N1CCN(C(c2ccc(C)cc2)c2nnnn2C(C)C)CC1 (stereo not given) | inactive: 1.44% | 
36 | O=C(C1CCCN(S(=O)(=O)c2cccc3nonc23)C1)N1CCN(c2cccc(Cl)c2)CC1 (stereo not given) | inconclusive: 13.1% [signal inhibitor] | 
37 | COc1cccc(/C=C/c2nc(C#N)c(N3CCCCC3)o2)c1 | inconclusive: 0.648% [signal inhibitor] | 
38 | CSc1ccc(CCNC(=O)CCc2c(C)nc3c(-c4ccccc4)c(C)nn3c2C)cc1 | inconclusive: 2.91% [signal inhibitor] | 
39 | COC(=O)c1ccc2c(=O)n(CCCCCC(=O)NCc3ccccc3)c(=O)[nH]c2c1 | inconclusive: -1.77% [signal inhibitor] | 
40 | CCn1cc(C2N3CC4(CC)CN2CC(CC)(C3)C4=O)c2ccccc21 (stereo not given) | inconclusive: 1.34% [signal inhibitor] | 
41 | O=C(Cc1cccs1)Nc1nc2ccccc2s1 | inconclusive: 8.84% [signal inhibitor] | 
42 | N#CCCCSc1ncccc1-c1nc2ccccc2[nH]1 |  | inconclusive: 20 µM [signal inhibitor, partial curve]
43 | COc1ccc(NC(=O)C(=O)NCC(c2ccc3c(c2)OCO3)N2CCN(C)CC2)cc1 (stereo not given) | inconclusive: 1.24% [signal inhibitor] | 
44 | COc1ccccc1-c1nc(C#N)c(NCc2ccc(F)cc2)o1 | inactive: -0.765% | 
45 | N#CC1=C(N)Oc2cc(O)ccc2C1c1cccs1 (stereo not given) | inactive: 8.83% | 
46 | COc1ccc(CCNC(=O)c2cc(Nc3cc(C)cc(C)c3)nc3ccccc23)cc1OC | inconclusive: 0.65% [signal inhibitor] | 
47 | CC(=O)Nc1cccc(NC(=O)CSc2cn(CC(=O)N(C(C)C)C(C)C)c3ccccc23)c1 | inactive: 0.999% | 
48 | O=C(NCc1ccccn1)c1cc(S(=O)(=O)N2CCN(c3ccccc3)CC2)ccc1Cl | inconclusive: 3.34% [signal inhibitor] | 

Row | Structure (SMILES) | IkBa stabilization activation | Potency
49 | Cn1c(CSc2nc3ccccc3s2)nc2ccccc21 | inconclusive: 2.74% [signal inhibitor] | 
50 | COCC(C)n1c(C)cc(C(=O)COC(=O)c2c(C)nn(-c3ccccc3)c2C)c1C (stereo not given) | inconclusive: 14.6% [signal inhibitor] | 
51 | CC(C)Cc1cc(C(=O)Nc2sc3c(c2C#N)CCCC3)no1 | inactive: 6.99% | 
52 | Cc1ccc2c(c1)sc1nc(-c3cc4ccccc4oc3=O)cn12 |  | inconclusive: 5.01 µM [signal inhibitor, partial curve]
53 | CCOC(=O)c1ccccc1NC(=O)CN1C(=O)CC(c2ccco2)Sc2ccccc21 (stereo not given) | inconclusive: 8.01% [signal inhibitor] | 
54 | CCOC(=O)Cn1c(CN(Cc2ccccc2)Cc2ccccc2)nc2c1c(=O)n(C)c(=O)n2C | inconclusive: 1.66% [signal inhibitor] | 
55 | CCOC(=O)NCc1ccc2c(c1)cc(C)n2C | inactive: -1.08% | 
56 | O=C(c1ccc2c(c1)N(Cc1ccc(Cl)cc1)C(=O)c1ccccc1S2=O)N1CCN(c2ccccc2F)CC1 (stereo not given) | inconclusive: 1.52% [signal inhibitor] | 
57 | O=C(c1ccc(F)cc1)N1CCC(c2nc3ccccc3o2)CC1 | inconclusive: -1.18% [signal inhibitor] | 
58 | CC(C)NC(=O)CC(=O)Nc1ccc2nc3n(c(=O)c2c1)CCCCC3 | inconclusive: -2.28% [signal inhibitor] | 
59 | CCOc1ccccc1NC(=O)C(NS(=O)(=O)c1ccc2c(c1)CCC(=O)N2)c1ccccc1 (stereo not given) | inconclusive: 2.87% [signal inhibitor] | 
60 | CC(C)(C)c1ccc(Oc2nc3ccccn3c(=O)c2/C=C(\C#N)c2nc3ccccc3[nH]2)cc1 | inconclusive: 8.8% [signal inhibitor] | 
61 | COc1ccc(CNC(=O)c2ccc3c(c2)N(C)C(=O)C2CCCCN32)cc1OC (stereo not given) | inconclusive: 10.4% [signal inhibitor] | 
62 | CC1Oc2ccccc2N(CC(=O)c2cccc(Cl)c2)C1=O (stereo not given) | inactive: 1.15% | 
63 | CCCCOc1ccc(C(=O)N2CCC(c3nc4ccccc4o3)CC2)cc1 | inconclusive: -0.386% [signal inhibitor] | 
64 | CCOC(=O)c1ccc(NC(=O)C2=C(C)Nc3nc(SCc4ccc(Cl)cc4)nn3C2c2ccc(C)cc2)cc1 (stereo not given) | inactive: 3.4% | 
65 | Cc1nn(C(=O)COc2ccccc2)c(C)c1Sc1ccccc1 | inconclusive: 7.69% [signal inhibitor] | 
66 | Cc1c(C)n(C)c2ccc(C(=O)NCc3cccs3)cc12 | inconclusive: 9.66% [signal inhibitor] | 
67 | CCN(c1cccc(C)c1)S(=O)(=O)c1ccc2c(c1)NC(=O)CCS2 | inconclusive: -1.56% [signal inhibitor] | 
68 | Cc1c(Cl)cccc1Nc1nn2c(=O)c3ccc(C(=O)NCCc4ccccc4)cc3nc2s1 | inconclusive: 0.0852% [signal inhibitor] | 
69 | O=C(c1cc(-c2ccc3c(c2)OCO3)on1)N1CCN(c2ccc(F)cc2)CC1 | inconclusive: 11.3% [signal inhibitor] | 
70 | O=C(NC1CC(=O)N(c2ccccc2)C1)c1ccc(Br)o1 (stereo not given) | inconclusive: 2.84% [signal inhibitor] | 
